Measurements published in ChEMBL document CHEMBL4888484, “Replenishing the malaria drug discovery pipeline: Screening and hit evaluation of the MMV Hit Generation Library 1 (HGL1) against asexual blood stage Plasmodium falciparum ,using a nano luciferase reporter read-out” (2022).
About 540 (0.36%) of roughly 150,000 compounds showed an effect of 50% or more. The list shows a part of the results.

Each compound was assayed on Plasmodium falciparum (assay: Primary screen in NF54 nanoGlo assay, in single point, at 2uM, 72h; a lower Z score goes with more inhibition). Settings: timepoint 72 hour.
Format: functional, Erythrocyte

| Compound | % Inhibition | Z score |
| --- | --- | --- |
| COc1nc2c(c(C)nn2-c2ccccc2)c(C)c1CCC(=O)NC[C@H]1CCCO1 | 3% | -0.5 |
| CC(C)Cn1cc(CNC(=O)OCc2ccccc2)cn1 | -6% | 0.99 |
| O=C(Nc1cc(F)cc(F)c1)N1CC(c2noc(-c3ccncc3)n2)C1 | 26% | -2.98 |
| CCn1nnc2cc(C(=O)N3CCN(CC(=O)N(C)C)CC3)ccc21 | 1% | -0.18 |
| Clc1ccc(CN2CC[C@H](Oc3ccccc3)C2)nc1 | -4% | 0.69 |
| O=C(NCCOc1ccccc1F)c1ccnnc1 | -6% | 0.63 |
| COCC(=O)Nc1ccc(-c2noc([C@@H]3CCCN3Cc3ncc[nH]3)n2)cn1 | -12% | 1.58 |
| O=C1NN=C(c2ccccc2)[C@@]1(Cl)c1ccccc1 | -9% | 1.11 |
| Cc1ccc(CNC(=O)Cc2sc(-c3cccnc3)nc2-c2ccc(C)cc2)cc1 | 6% | -0.82 |
| Cc1nn([C@H]2CCS(=O)(=O)C2)c(O)c1Cc1ccc(Br)cc1 | -10% | 1.36 |
| C[C@H]1CCCN(C(=O)CNC2(c3cccc(F)c3)CC2)C1 | -11% | 2.07 |
| Cc1nnc(C(=O)NCCOc2cccc(Br)c2)s1 | -5% | 0.88 |
| COCC[C@@H](CO)NC(=O)NCc1cc2cc(F)ccc2s1 | 34% | -0.44 |
| CN(CCCCN1CCOCC1)C(=O)c1ccc2nc(C3CCCCC3)oc2c1 | -11% | 2.09 |
| CCn1cc(CC(=O)N2CCCC[C@@H]2CC2(O)CCCCC2)nn1 | 2% | -0.42 |
| CCC(=O)NCc1ccc(-c2noc(Cc3cccc(F)c3)n2)s1 | -14% | 1.63 |
| O=C1CC2(CCN(S(=O)(=O)Cc3ccc(Cl)cc3F)CC2)CN1 | -12% | 1.99 |
| COCC1CCN(S(=O)(=O)NCCc2c(C)n[nH]c2C)CC1 | -8% | 1.13 |
| Cc1ccccc1C(=O)Nc1ccc(N(C)C[C@H]2COCCO2)c(C(=O)O)c1 | -16% | 1.44 |
| CC1CCN(C(=O)C(C)C2CC2)CC1CNC(=O)OC(C)(C)C (stereo unspecified) | -3% | 0.28 |
| CC(NC(=O)C1CCCc2ccccc21)c1nnc2n1CCCCC2 (stereo unspecified) | -8% | 1 |
| Cc1nc(N(C)CCN2CCCC2)nc2ccccc12 | -24% | 2.58 |

| Compound | % Inhibition | Z score |
| --- | --- | --- |
| CCOC1CC(NC(=O)N2CCOC(c3ccc(C)o3)C2)C12CCC2 (stereo unspecified) | -1% | 0.1 |
| CC(=O)N1CCc2[nH]c3ccc(C(=O)NC4CCN(Cc5ccccc5)CC4)cc3c2C1 | 1% | -0.1 |
| O=C1CCCN1c1ccc(CNc2ncnc3cc(F)ccc23)cc1 | -13% | 2.02 |
| Cc1cc(C)nc(-n2nc(C)c(C(c3ccc(Cl)cc3)c3c(C)nn(-c4nc(C)cc(C)n4)c3N)c2N)n1 | -5% | 0.96 |
| Fc1ccc(N2CCN(c3cc(CNCc4ccco4)ccn3)CC2)cc1 | 8% | -1.64 |
| COC(=O)c1ccccc1CCS(=O)(=O)Cc1ccccn1 | -1% | 0.08 |
| O=C(CCC1CCN(Cc2ccoc2)CC1)NCc1cccnc1 | -7% | 1.01 |
| Cc1n[nH]c(CN2CC[C@@](O)(CO)C2)c1Cl | -8% | 1.27 |
| Cc1cc(NC(=O)N2CCC(n3cnnc3)CC2)ccc1N1CCCC1=O | -15% | 1.36 |
| CC(C)[C@@H](C(=O)N1CCn2nc(CCC(=O)O)cc2C1)c1ccccc1 | -19% | 2.42 |
| O=C(NCCc1ccccn1)c1occc1-c1ccc(F)cc1 | 3% | -0.3 |
| Cc1c(C)n(-c2ccccc2)c2ncn(CC(=O)N[C@H]3CCCc4ccccc43)c(=O)c12 | 3% | -0.33 |
| NC(=O)c1nc(Cn2ccnc2-c2cc(-c3ccccc3)no2)no1 | -14% | 2.31 |
| CCc1c([C@H](C)S(=O)(=O)c2ccccc2)[nH]c(=O)n1CC | 30% | -3.83 |
| C[C@H]1CCc2c(sc(NC(=O)c3cccc(S(=O)(=O)NC4CCCCC4)c3)c2C#N)C1 | -10% | 1.84 |
| CC(C)NC(=O)NC1CC(C(F)(F)F)C1 (stereo unspecified) | 3% | -0.27 |
| Cc1cccc(CNC(=O)c2ccc(-n3cnc4cccnc43)cc2)c1 | -6% | 0.94 |
| C#CC12C(=O)N(C)C3C(CCO)C1C=CCC32 (stereo unspecified) | -8% | 1.49 |
| COCCN1C[C@@H](C(=O)N2CCN(c3nccs3)CC2)CC1=O | -2% | 0.25 |
| CCCn1cnnc1CN(C)CCCc1ccco1 | -12% | 1.75 |
| O=S1(=O)CCCN1Cc1cccc(-c2cnc3cncn3c2)c1 | -9% | 1.21 |
